Results as given in ChEMBL document CHEMBL4888484, “Replenishing the malaria drug discovery pipeline: Screening and hit evaluation of the MMV Hit Generation Library 1 (HGL1) against asexual blood stage Plasmodium falciparum ,using a nano luciferase reporter read-out” (2022).
Hit rate of the full screen: of about 150,000 compounds, about 540 (0.36%) showed an effect of 50% or more. The list shows a part of the results.

system: Plasmodium falciparum; test: Primary screen in NF54 nanoGlo assay, in single point, at 2uM, 72h; a lower Z score goes with more inhibition; format: functional, Erythrocyte; conditions: timepoint 72 hour

Row | Structure (SMILES) | % Inhibition | Z score
1 | CC1=C(C(=O)Nc2nn(C)cc2C#N)CCC1 | -12% | 2.11
2 | Cc1ccc(N2CCCN(Cc3ccc(C(C)C)cc3)C2=O)c(NC(=O)c2ccco2)c1 | 36% | -4.89
3 | CN(Cc1cccnc1)C(=O)C1CCC1 | -5% | 0.56
4 | CCc1nnc([C@@H]2CC(F)(F)CN2C(=O)c2cc(C)oc2C)o1 | -5% | 0.81
5 | Cn1ccc2cccc(NC(=O)N3CCC(Oc4ccc(F)cc4F)CC3)c21 | 5% | -0.79
6 | O=C(Cc1c[nH]c2ccccc12)Nc1ccc(OCc2ccccc2)cc1 | 2% | -0.38
7 | Cn1nc(CCC(=O)N2CCCCC2)c2c1CCN(CC1CCCCC1)C2 | -11% | 1.34
8 | Cc1cnccc1NC(=O)NCCC(=O)Nc1ccccc1 | -3% | 0.48
9 | CCN1CCCN(c2nc3ccccc3o2)CC1 | -1% | 0.15
10 | CCn1nc([C@@H]2CCCN2S(=O)(=O)c2ccc(F)c(C)c2)c2c1CCOC2 | 4% | -0.43
11 | Cc1ccc2nc(C3CC3)cc(C(=O)N3CC(n4cc(C(N)=O)nn4)C3)c2c1 | -2% | 0.24
12 | O=C(NC1CCCCC1)N1CC(c2noc(COCc3ccccc3)n2)C1 | -13% | 1.54
13 | Cc1nocc1NC(=O)N[C@H]1CC12CCCCC2 | -3% | 0.63
14 | CC1=C(C(=O)c2ccccc2)[C@@](NC(=O)c2cccnc2)(C(F)(F)F)C(=O)N1CCc1ccccc1 | -6% | 0.76
15 | COC(=O)NCC(=O)N(CCN1CCCC1)Cc1ccccc1 | -5% | 0.64
16 | O=S1(=O)CCC(S(=O)(=O)Oc2cccc3cccnc23)CC1 | -7% | 0.95
17 | CN(Cc1csc(-c2ccccc2)n1)C(=O)c1cnn2c1CCCC2 | -10% | 1.83
18 | C[C@@H](C(=O)O)N(C(=O)c1n[nH]c2ccccc2c1=O)C1CC1 | -11% | 1.42
19 | CN(CCO)C[C@H](O)COc1c(Cl)cccc1Cl | -8% | 1
20 | CC(=O)N1C[C@@H]2CCN(C(=O)c3ccc4c(c3)OCO4)C[C@]2(CO)C1 | 4% | -0.57
21 | CC1CCCC(CO)N1Cc1nc(-c2ccco2)no1 (stereo unspecified) | -15% | 1.86
22 | N/C(=N\NC(=O)c1cnccn1)c1ccccn1 | 0% | 0.04

Row | Structure (SMILES) | % Inhibition | Z score
23 | Cc1cccc(Cn2nc(C)cc2NC(=O)[C@H]2CC[C@@H](O)CC2)c1 | -7% | 1.26
24 | Cc1nn(-c2ccccc2)c(=O)n1CC(=O)NCCN1CCOCC1 | -5% | 0.75
25 | c1ccc(-c2csc(CN3CC(N4CCCCC4)C3)n2)cc1 | -11% | 1.36
26 | O=C(C1CCN(c2nccs2)CC1)N1CCN(S(=O)(=O)c2ccc(F)cc2)CC1 | 0% | 0.06
27 | O=C(CCn1cnc2ccccc2c1=O)N1CC(S(=O)(=O)c2ccc(Cl)cc2)C1 | -22% | 2.85
28 | CCN(Cc1noc(CC(C)C)n1)C(=O)CN1C(=O)OC[C@@H]1C(C)C | -10% | 1.54
29 | Cc1cc(CN2CCN(C(=O)NCc3ccccn3)CC2)on1 | -9% | 1.24
30 | Cc1nccc(CCC(=O)NC[C@H]2CCC(C)(C)O2)n1 | -5% | 0.86
31 | CCCn1c(C(=O)NCCN2CCOCC2)cc2cc(NS(=O)(=O)c3ccc(C(C)(C)C)cc3)ccc21 | -7% | 0.88
32 | CCc1nc(CC)n(Cc2nc(-c3ccccn3)no2)n1 | -11% | 2.07
33 | COC[C@H](C)Nc1ccc(C)c(C(=O)OC)c1 | -8% | 1.19
34 | CCN1CC(=O)N(c2cscc2Cl)C1=O | -1% | 0.27
35 | O=C(NCCC1CCCCO1)C1NCC12CCCC2 (stereo unspecified) | 2% | -0.26
36 | Fc1cccc(F)c1-c1n[nH]cc1CN1CCCc2n[nH]cc21 | -4% | 0.34
37 | Cc1nc(C)c(C(=O)Nc2nc(-c3cccs3)nn2C)s1 | -7% | 0.62
38 | COC(C)c1nc(CN2C(=O)C3CCCCN3C2=O)cs1 (stereo unspecified) | -10% | 1.16
39 | CC(=O)N1CCC(CNc2nc(N)cc(C(C)(C)C)n2)CC1 | -7% | 1.46
40 | O=C(C1CC12CC2)N1CCOCC1C1CCC1 (stereo unspecified) | 10% | -1.91
41 | Cc1noc(C)c1CN(C)Cn1nc2ccccn2c1=O | -36% | 4.21
42 | C[C@H](CC(=O)N(C)c1ccc(-c2onc3c2CCc2ccccc2-3)cc1)CC(C)(C)C | -3% | 0.43
43 | COc1ccccc1[C@@H]1CCCN1CCC(=O)Nc1cccnc1 | 1% | -0.08
